Data from patent US20250090699A1, “FAP TARGETING CYCLIC PEPTIDES AND CONJUGATES THEREOF” (Novartis AG, priority 2023, published 2025).
At least one compound was matched to its structure with a doubt left. Starred links: 1 amine or outer side, 2 acyl side, 3 side chain; linkers in the order of their positions; H or OH if unused. Non-standard residues stand in square brackets, D forms with d. Residues, ends and D or L forms follow the SMILES beside them. Groups on a side chain read outwards from the residue. *: point of attachment. X11 = CC[N+]1=C(/C=C/C=C/C=C2/N(CCCCCC(=O)*)c3ccc(S(=O)(=O)O)cc3C2(C)C)C(C)(C)c2cc(S(=O)(=O)[O-])ccc21; DOTA = O=C(O)CN1CCN(CC(=O)O)CCN(CC(=O)*)CCN(CC(=O)O)CC1; Trp(7-aza) = N[C@@H](Cc1c[nH]c2ncccc12)C(=O)O; NOTA = O=C(O)CN1CCN(CC(=O)O)CCN(CC(=O)*)CC1; Phe(4-CH2NH2) = NCc1ccc(C[C@H](N)C(=O)O)cc1; Piperazinyl(4-CH2COOH) = O=C(O)CN1CCN(*)CC1; NMe3Pal = CN[C@@H](Cc1cccnc1)C(=O)O; mTyr = N[C@@H](Cc1cccc(O)c1)C(=O)O; NMeF = CN[C@@H](Cc1ccccc1)C(=O)O; Aoc(2) = CCCCCC[C@H](N)C(=O)O; AEEA = NCCOCCOCC(=O)O; CO = O=C([*:1])[*:2]

Assays:
[1] = biological target: T1, mouse FAP (Mus musculus, UniProt P97321); test: Surface plasmon resonance (SPR) for peptide affinity, mouse FAP; format: binding
T1 construct: biotinylated His, Avi tag, mouse FAP (26-761, FAP-M82Q5); His; Avi tag (biotinylated); purchased AcroBiosystems FAP-M82Q5
T1 sequence (P97321 26-761): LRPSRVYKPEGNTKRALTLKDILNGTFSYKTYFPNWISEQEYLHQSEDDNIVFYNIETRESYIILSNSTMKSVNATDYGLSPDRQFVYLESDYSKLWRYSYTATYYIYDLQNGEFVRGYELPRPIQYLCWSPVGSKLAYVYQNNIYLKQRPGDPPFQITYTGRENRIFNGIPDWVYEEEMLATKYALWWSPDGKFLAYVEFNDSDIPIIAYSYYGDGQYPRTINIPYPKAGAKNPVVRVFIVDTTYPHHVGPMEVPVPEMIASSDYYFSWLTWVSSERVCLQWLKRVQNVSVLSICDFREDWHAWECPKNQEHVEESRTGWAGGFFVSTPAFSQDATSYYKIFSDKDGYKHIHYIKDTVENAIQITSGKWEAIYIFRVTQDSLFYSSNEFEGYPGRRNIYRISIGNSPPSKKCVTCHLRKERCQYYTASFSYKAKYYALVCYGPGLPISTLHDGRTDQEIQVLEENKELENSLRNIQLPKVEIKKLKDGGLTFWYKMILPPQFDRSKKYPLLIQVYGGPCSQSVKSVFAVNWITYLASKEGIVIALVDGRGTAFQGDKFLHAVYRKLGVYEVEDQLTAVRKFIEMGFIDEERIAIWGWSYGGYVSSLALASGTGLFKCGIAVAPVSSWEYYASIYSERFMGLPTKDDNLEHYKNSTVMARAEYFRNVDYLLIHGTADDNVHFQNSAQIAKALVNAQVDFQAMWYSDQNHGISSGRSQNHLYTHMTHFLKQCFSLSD
Experimental: Peptide affinities (KD) were determined by SPR using a Biacore™ 8K device (Cytiva) towards the following proteins: biotinylated His, Avi tag, human FAP (26-760, FAP-H82Q6), biotinylated His, Avi tag, mouse FAP (26-761, FAP-M82Q5), His tag, human DPP4 (34-766, DP4-H82E3), all purchased from AcroBiosystems and His tag, mouse DPP4 (29-760, 954-SE) from R&D Systems. The FAP proteins and their homologous were diluted to a concentration of 2 μg/mL into acetate buffer pH 5.5, then immobilized onto a CM5 sensorchip (Cytiva, BR-1005-30) to reach a response around 2000 R U. The running buffer HBS-EP+pH 7.6 (20× from Teknova CAT. No: H8022) contained 10 mM HEPES pH 7.6, 150 mM NaCl, 3 mM EDTA, 0.05% Tween20 and 2% DMSO. Experiments were carried out at 25° C. using a flow rate of 30 μL/min. Compounds were tested in single cycle kinetic mode at 8 different concentrations. Curve fitting was performed using the Biacore™ 8K evaluation software. The sensorgrams were fitted by applying a 1:1 binding model to calculate kinetic rate constants and equilibrium dissociation constants (KD).
For this assay, the setup had the same conditions (flow rate, running buffer, peptide dilution) as described above for the CM5 method. The oligo CAP reagent obtained in the CAPture Kit (Ref. 28920234) was 1/5 diluted into running buffer and used with a contact time of 300 s at a flow rate of 2 μL/min. The human and mouse FAP constructs described above were used (from AcroBiosystems or produced in house). The FAP proteins were diluted to a concentration of 2 μg/mL into acetate pH 5.5, 0.05% Tween20 and used with a contact time of 600 s at a flow rate of 10 μL/min. The peptides were tested with an association time of 280 s followed by a dissociation time of 3000 s at a flow rate of 30 μL/min. The regeneration was done using the regeneration solution (8 M guanidine-HCl, 1 M NaOH) as obtained with a contact time of 270 s at a flow rate of 10 μL/min. […] The compounds marked with an asterisk were tested against human and mouse DDP4.

[2] = biological target: T2, human FAP (Homo sapiens, UniProt Q12884); test: Enzymatic FAP competition assay (Z-Gly-Pro-AMC fluorescence), human FAP; format: biochemical; settings: read-out: h. FAP, Enz., IC50
T2 construct: the biotinylated His, Avi tag, human FAP (26-760, FAP-H82Q6); His; Avi tag (biotinylated); purchased AcroBiosystems FAP-H82Q6
T2 sequence (Q12884 26-760): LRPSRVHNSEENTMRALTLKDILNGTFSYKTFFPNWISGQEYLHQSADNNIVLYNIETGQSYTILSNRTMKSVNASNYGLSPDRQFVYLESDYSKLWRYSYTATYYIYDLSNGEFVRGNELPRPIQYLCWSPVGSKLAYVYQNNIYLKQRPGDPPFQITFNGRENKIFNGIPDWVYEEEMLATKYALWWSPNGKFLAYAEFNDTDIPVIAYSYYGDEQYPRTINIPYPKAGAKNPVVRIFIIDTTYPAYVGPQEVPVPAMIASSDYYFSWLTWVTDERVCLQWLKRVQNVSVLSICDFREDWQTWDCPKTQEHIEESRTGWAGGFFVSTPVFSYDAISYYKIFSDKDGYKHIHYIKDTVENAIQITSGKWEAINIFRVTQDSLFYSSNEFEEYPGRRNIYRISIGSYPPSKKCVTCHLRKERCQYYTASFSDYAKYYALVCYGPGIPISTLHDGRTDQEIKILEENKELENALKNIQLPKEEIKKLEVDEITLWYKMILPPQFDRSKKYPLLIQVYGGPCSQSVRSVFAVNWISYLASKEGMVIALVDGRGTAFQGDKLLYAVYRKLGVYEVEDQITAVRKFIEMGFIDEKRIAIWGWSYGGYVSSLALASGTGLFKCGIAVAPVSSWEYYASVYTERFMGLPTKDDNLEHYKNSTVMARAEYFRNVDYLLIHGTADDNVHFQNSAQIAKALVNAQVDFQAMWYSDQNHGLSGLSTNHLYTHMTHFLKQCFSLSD
Experimental: (§1) Peptide potencies (IC50) to inhibit the FAP enzymatic activity were determined using a fluorescence-based assay towards the biotinylated His, Avi tag, human FAP (26-760, FAP-H82Q6) and the biotinylated His, Avi tag, mouse FAP (26-761, FAP-M82Q5). Standard assay conditions consisted of 20 μL total volume in white 384-well plates (Greiner, Ref. 784075), in 50 mM phosphate buffer pH 7.5 containing 150 mM NaCl, 0.05% Tween20 and 1% final DMSO. Tested peptides at 14 different concentrations up to 1 μM were added to 0.01 nM human or mouse FAP. The peptides were incubated for 24 hours together with the protein before adding the substrate 50 μM Z-Gly-Pro-AMC (I-1145 from Bachem). Samples were then incubated at 22-24° C. for 4 h before reading the fluorescence at excitation wavelength of 380 nm and emission wavelength of 460 nm using the Tecan Infinite® M1000 PRO. The high control (100% activity) was not containing any peptide, and an internal potent peptide was added at 10 μM concentration for the low control (100% inhibition). IC50 values were calculated by curve fitting using an in-house developed software (Novartis Helios software application) using the method described by Fomenko et al., 2006 (regression algorithms for nonlinear dose-response curve fitting). Following normalization of activity values for the wells to % inhibition (% inhibition=[(high control-sample)/(high control-low control)]x 100). IC50 fitting was carried out from the duplicated points.

[3] = biological target: T1, mouse FAP; test: Enzymatic FAP competition assay (Z-Gly-Pro-AMC fluorescence), mouse FAP; format: biochemical; settings: read-out: m. FAP, Enz., IC50
Experimental: as §1

| SMILES | Kd [1] | IC50 [2] | IC50 [3] |
| --- | --- | --- | --- |
| CCCCCC[C@@H]1NC(=O)[C@H](Cc2ccc(CNC(=O)COCCOCCNC(=O)CN3CCN(CC(=O)O)CCN(CC(=O)O)CCN(CC(=O)O)CC3)cc2)NC(=O)[C@H](Cc2cccnc2)N(C)C(=O)CNC(=O)CNC(=O)[C@H]2CCCN2C(=O)[C@H](CC(=O)O)NC(=O)[C@H](CCCCNC(=O)N2CCN(CC(=O)O)CC2)NC(=O)CNC(=O)[C@H](Cc2c[nH]c3ccccc23)NC1=O [Example C48, Gly-Gly-NMe3PyA-F(4amPEG2NHDOTA-Ga)-Aoc-Trp-Gly-K(Copipzaa)-Asp-D-Pro] (cyclo(GG[NMe3Pal][Phe(4-CH2NH2)]([AEEA-DOTA])[Aoc(2)]WGK([CO-Piperazinyl(4-CH2COOH)])D[dP])) | < 0.019 nM | 0.008 nM | 0.029 nM |
| CCCCCC[C@@H]1NC(=O)[C@H](Cc2ccc(CNC(=O)COCCOCCNC(=O)CN3CCN(CC(=O)O)CCN(CC(=O)O)CCN(CC(=O)O)CC3)cc2)NC(=O)[C@H](Cc2ccccc2)N(C)C(=O)CNC(=O)CNC(=O)[C@H]2CCCN2C(=O)[C@H](CC(=O)O)NC(=O)[C@H](Cc2cccc(O)c2)NC(=O)CNC(=O)[C@H](Cc2c[nH]c3ccccc23)NC1=O [Example C18, Gly-Gly-NMePhe-F(4amPEG2NHDOTA-Lu)-Aoc-Trp-Gly-F(3Oh)-Asp-D-Pro] (cyclo(GG[NMeF][Phe(4-CH2NH2)]([AEEA-DOTA])[Aoc(2)]WG[mTyr]D[dP])) | 0.011 nM | 0.008 nM | 0.012 nM |
| CCCCCC[C@@H]1NC(=O)[C@H](Cc2ccc(CNC(=O)COCCOCCNC(=O)CN3CCN(CC(=O)O)CCN(CC(=O)O)CCN(CC(=O)O)CC3)cc2)NC(=O)[C@H](Cc2ccccc2)N(C)C(=O)CNC(=O)CNC(=O)[C@H]2CCCN2C(=O)[C@H](CC(=O)O)NC(=O)[C@H](CCCCNC(=O)N2CCN(CC(=O)O)CC2)NC(=O)CNC(=O)[C@H](Cc2c[nH]c3ncccc23)NC1=O [Example C28, Gly-Gly-NMePhe-F(4amPEG2NHDOTA-Lu)-Aoc-W7N-Gly-K(COpipzaa)-Asp-D-Pro] (cyclo(GG[NMeF][Phe(4-CH2NH2)]([AEEA-DOTA])[Aoc(2)][Trp(7-aza)]GK([CO-Piperazinyl(4-CH2COOH)])D[dP])) | 0.024 nM | 0.023 nM | 0.041 nM |
| CCCCCC[C@@H]1NC(=O)[C@H](Cc2ccc(CNC(=O)COCCOCCNC(=O)CN3CCN(CC(=O)O)CCN(CC(=O)O)CCN(CC(=O)O)CC3)cc2)NC(=O)[C@H](Cc2ccccc2)N(C)C(=O)CNC(=O)[C@H](CCCCNC(=O)CCCCCN2/C(=C/C=C/C=C/C3=[N+](CC)c4ccc(S(=O)(=O)[O-])cc4C3(C)C)C(C)(C)c3cc(S(=O)(=O)O)ccc32)NC(=O)[C@H]2CCCN2C(=O)[C@H](CC(=O)O)NC(=O)[C@H](CCCCNC(=O)N2CCN(CC(=O)O)CC2)NC(=O)CNC(=O)[C@H](Cc2c[nH]c3ccccc23)NC1=O [Example D2, Lys(Cy5)-Gly-NMePhe-F(4amPEG2NH-DOTA-Lu)-Aoc-Trp-Gly-K(COpipzaa)-Asp-D-Pro] (cyclo(K(X11)G[NMeF][Phe(4-CH2NH2)]([AEEA-DOTA])[Aoc(2)]WGK([CO-Piperazinyl(4-CH2COOH)])D[dP])) | < 0.04 nM | – | – |
| CCCCCC[C@@H]1NC(=O)[C@H](Cc2ccc(CNC(=O)COCCOCCNC(=O)CN3CCN(CC(=O)O)CCN(CC(=O)O)CC3)cc2)NC(=O)[C@H](Cc2ccccc2)N(C)C(=O)CNC(=O)CNC(=O)[C@H]2CCCN2C(=O)[C@H](CC(=O)O)NC(=O)[C@H](CCCCNC(=O)N2CCN(CC(=O)O)CC2)NC(=O)CNC(=O)[C@H](Cc2c[nH]c3ccccc23)NC1=O [Example C54, Gly-Gly-NMePhe-F(4amPEG2NH-NOTA-AlF)-Aoc-Trp-Gly-K(COpipzaa)-Asp-D-Pro] (cyclo(GG[NMeF][Phe(4-CH2NH2)]([AEEA-NOTA])[Aoc(2)]WGK([CO-Piperazinyl(4-CH2COOH)])D[dP])) | < 0.016 nM | 0.004 nM | – |
| CCCCCC[C@@H]1NC(=O)[C@H](Cc2ccc(CNC(=O)COCCOCCNC(=O)CN3CCN(CC(=O)O)CCN(CC(=O)O)CCN(CC(=O)O)CC3)cc2)NC(=O)[C@H](Cc2ccccc2)N(C)C(=O)CNC(=O)CNC(=O)[C@H]2CCCN2C(=O)[C@H](CC(=O)O)NC(=O)[C@H](CCCCNC(=O)CCCCCN2/C(=C/C=C/C=C/C3=[N+](CC)c4ccc(S(=O)(=O)[O-])cc4C3(C)C)C(C)(C)c3cc(S(=O)(=O)O)ccc32)NC(=O)CNC(=O)[C@H](Cc2c[nH]c3ccccc23)NC1=O [Example D1, Gly-Gly-NMePhe-F(4amPEG2NH-DOTA-Lu)-Aoc-Trp-Gly-Lys(Cy5)-Asp-D-Pro] (cyclo(GG[NMeF][Phe(4-CH2NH2)]([AEEA-DOTA])[Aoc(2)]WGK(X11)D[dP])) | < 0.03 nM | – | – |
